For experiment [1], the target named is T1, Rac1* (Rac1 Gln61Leu, residues 1-176, loaded with GppNHp) (human, UniProt P63000, Gln61Leu). The experiment is described as follows: SPR; Biacore T100, 25°C, standard buffer with 0.05% (v/v) Tween 20; biotinylated plexin constructs on streptavidin surfaces (500-5,000 RU); RhoGTPase injected, 120 nM to 500 µM; equilibrium responses fitted to a 1:1 Langmuir model. The following applies: both partners purified. Background: SPR reads the build-up and loss of mass on a sensor chip optically.

Experiment [2] addresses T1, Rac1* (Rac1 Gln61Leu, residues 1-176, …). The experiment is described as follows: SPR; as a1, high coupling density: 5,000 RU of the plexin construct loaded on the chip; RhoGTPase 120 nM to 2,000 µM. The following applies: both partners purified.

B1: Plexin-B1_(cyto) Thr1920Glu (domain or fragment)
chain: not shown
modifications: biotin, added enzymatically within the engineered C-terminal tag
notes: human Plexin-B1, cytoplasmic region, […]; also called Thr1920Glu^Plex; site B mutant; source: HEK 293T cells, transfected, purified; not shown: engineered tag for enzymatic biotinylation, C-terminal, kept
Take B1: in experiment [1], the binding result was “binds”.

B2: Plexin-B1_(cyto) Leu2036Arg (domain or fragment)
chain: not shown
modifications: biotin, added enzymatically within the engineered C-terminal tag
notes: human Plexin-B1, cytoplasmic region, […]; also called Leu2036Arg^Plex; site B mutant; source: HEK 293T cells, transfected, purified; not shown: engineered tag for enzymatic biotinylation, C-terminal, kept
Take B2: the binding result in experiment [1] is “binds”.

B3: Plexin-B1Δ2 Leu1815Glu (domain or fragment)
chain: not shown
modifications: biotin, added enzymatically within the engineered C-terminal tag
notes: human Plexin-B1, cytoplasmic region lacking the N-terminal helix, […]; also called site A Plexin-B1Δ2 mutant Leu1815Glu^Plex; source: HEK 293T cells, transfected, purified; not shown: engineered tag for enzymatic biotinylation, C-terminal, kept
For the molecule B3, the binding result in experiment [2] is listed as “binds”.

B4: Plexin-B1_(cyto) Arg1921Ala (domain or fragment)
chain: not shown
modifications: biotin, added enzymatically within the engineered C-terminal tag
notes: human Plexin-B1, cytoplasmic region, […]; also called Arg1921Ala^Plex; site B mutant; source: HEK 293T cells, transfected, purified; not shown: engineered tag for enzymatic biotinylation, C-terminal, kept
For the molecule B4, the binding result in experiment [1] is on record as “binds”.

The record behind these values is paper PMC3166162, “A Dual Binding Mode for RhoGTPases in Plexin Signalling” (PLoS Biology, 2011).
